The other results are listed elsewhere or left out. Rule as the data show it: active = 3.2 or more and inactive = the rest. Most of these values are background signal.
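Also: displayed peptides selected on beads carrying the immobilized SH2 domain, with library peptides lacking any tyrosine serving as negative controls.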

The target of one assay is SHP2 C-SH2 domain E139D. The experiment in a line: enrichment score (SH2-bound / input frequency) (ratio); bacterial display of known human phosphotyrosine sites (pTyr-Var adds point mutants) read by sequencing; higher = stronger binding; tyrosines were phosphorylated by kinases first. The settings on record: peptide library: Human pTyr.
As for KPPGTSSYEIVIGGG [SLAF5_HUMAN_341], the enrichment score was inactive: 0.881.

As to WMTGYEDYRHAPVRG [SPRE2_HUMAN_231], the enrichment score is inactive: 1.12.

SACTMGAYHPLLYEK [SIAT1_HUMAN_369]: the enrichment score is inactive: 1.31.

On to SETPGAIYSSNFHAV [SRBS1_HUMAN_654_YA], for which the enrichment score was inactive: 0.746.

In the case of ASEDTLTYADLDMVH [SHPS1_HUMAN_470], the enrichment score is inactive: 0.808.

AAEEVMCYTSLQLRP [SIT1_HUMAN_127]: the enrichment score was inactive: 1.67.

Take ETNSITVYASVTLPE [SLAF1_HUMAN_327]: the enrichment score was inactive: 1.61.

On to EIESSPQYRLRIAME [ATX2L_HUMAN_309], for which the enrichment score was inactive: 1.17.

As to KDESRNVYYELNDVR [SKT_HUMAN_244], the enrichment score was inactive: 0.686.

In the case of SNDSEPKYAPIAVLL [AVIL_HUMAN_758_YA], the enrichment score was inactive: 1.37.

MARNEGFYADPALAH [SKT_HUMAN_393_YA]: the enrichment score is inactive: 0.629.

For EDPPQEEYQEAEPEA [SNCB_HUMAN_127_YA], the enrichment score is inactive: 0.992.

Regarding KGVDAASYAQGLWDC [SKAP1_HUMAN_298_YA], the enrichment score is inactive: 0.987.

As for DAEDGEEYDDPFAGP [SKAP2_HUMAN_75], the enrichment score is inactive: 1.52.

For TRRKGVDYASAAQGL [SKAP1_HUMAN_295_YA], the enrichment score is inactive: 0.702.

NSFNNPAYAVLEGVP [SHIP2_HUMAN_986_YA]: the enrichment score is inactive: 0.926.

For the molecule EKKSLTIYAQVQKPG [SLAF1_HUMAN_281], the enrichment score was inactive: 2.44.

Take EMPSEEGYQDYEPEA [SNCA_HUMAN_133]: the enrichment score is inactive: 1.17.

The target in another assay is SHP2 C-SH2 domain wild-type. The assay is described as above. The conditions noted are these: peptide library: Human pTyr.
In the case of KPPGTSSYEIVIGGG [SLAF5_HUMAN_341], the enrichment score is inactive: 0.865.

For WMTGYEDYRHAPVRG [SPRE2_HUMAN_231], the enrichment score was inactive: 1.18.

For SACTMGAYHPLLYEK [SIAT1_HUMAN_369], the enrichment score is inactive: 1.16.

SETPGAIYSSNFHAV [SRBS1_HUMAN_654_YA]: the enrichment score was inactive: 0.587.

As to ASEDTLTYADLDMVH [SHPS1_HUMAN_470], the enrichment score is inactive: 0.589.

As for AAEEVMCYTSLQLRP [SIT1_HUMAN_127], the enrichment score is inactive: 1.97.

ETNSITVYASVTLPE [SLAF1_HUMAN_327]: the enrichment score is inactive: 2.54.

As for EIESSPQYRLRIAME [ATX2L_HUMAN_309], the enrichment score was inactive: 1.05.

In the case of KDESRNVYYELNDVR [SKT_HUMAN_244], the enrichment score was inactive: 0.834.

SNDSEPKYAPIAVLL [AVIL_HUMAN_758_YA]: the enrichment score was inactive: 1.08.

As to MARNEGFYADPALAH [SKT_HUMAN_393_YA], the enrichment score was inactive: 0.572.

Take EDPPQEEYQEAEPEA [SNCB_HUMAN_127_YA]: the enrichment score is inactive: 0.895.

Regarding KGVDAASYAQGLWDC [SKAP1_HUMAN_298_YA], the enrichment score is inactive: 0.814.

For the molecule DAEDGEEYDDPFAGP [SKAP2_HUMAN_75], the enrichment score was inactive: 0.951.

As to TRRKGVDYASAAQGL [SKAP1_HUMAN_295_YA], the enrichment score was inactive: 0.671.

Regarding NSFNNPAYAVLEGVP [SHIP2_HUMAN_986_YA], the enrichment score is inactive: 2.67.

As for EKKSLTIYAQVQKPG [SLAF1_HUMAN_281], the enrichment score was active: 5.11.

On to EMPSEEGYQDYEPEA [SNCA_HUMAN_133], for which the enrichment score is inactive: 0.906.

Another assay concerns the target SHP2 N-SH2 domain L43F. Described as above. The settings on record: peptide library: Human pTyr.
Regarding KPPGTSSYEIVIGGG [SLAF5_HUMAN_341], the enrichment score is inactive: 0.923.

Turning to WMTGYEDYRHAPVRG [SPRE2_HUMAN_231], the enrichment score is inactive: 1.03.

Take SACTMGAYHPLLYEK [SIAT1_HUMAN_369]: the enrichment score is inactive: 1.01.

For the molecule SETPGAIYSSNFHAV [SRBS1_HUMAN_654_YA], the enrichment score is inactive: 0.642.

Consider ASEDTLTYADLDMVH [SHPS1_HUMAN_470], for which the enrichment score was active: 3.58.

Regarding AAEEVMCYTSLQLRP [SIT1_HUMAN_127], the enrichment score is inactive: 1.75.

As for ETNSITVYASVTLPE [SLAF1_HUMAN_327], the enrichment score is inactive: 1.3.

In the case of EIESSPQYRLRIAME [ATX2L_HUMAN_309], the enrichment score was inactive: 1.05.

Consider KDESRNVYYELNDVR [SKT_HUMAN_244], for which the enrichment score was inactive: 1.09.

For the molecule SNDSEPKYAPIAVLL [AVIL_HUMAN_758_YA], the enrichment score is inactive: 1.28.

With MARNEGFYADPALAH [SKT_HUMAN_393_YA], the enrichment score was inactive: 0.505.

For the molecule EDPPQEEYQEAEPEA [SNCB_HUMAN_127_YA], the enrichment score was inactive: 0.916.

Turning to KGVDAASYAQGLWDC [SKAP1_HUMAN_298_YA], the enrichment score is inactive: 1.2.

Turning to DAEDGEEYDDPFAGP [SKAP2_HUMAN_75], the enrichment score was inactive: 1.11.

Consider TRRKGVDYASAAQGL [SKAP1_HUMAN_295_YA], for which the enrichment score is inactive: 0.806.

In the case of NSFNNPAYAVLEGVP [SHIP2_HUMAN_986_YA], the enrichment score is inactive: 0.855.

In the case of EKKSLTIYAQVQKPG [SLAF1_HUMAN_281], the enrichment score is inactive: 1.41.

For the molecule EMPSEEGYQDYEPEA [SNCA_HUMAN_133], the enrichment score was inactive: 1.23.

The target in a further assay is SHP2 N-SH2 domain T42A. Described as above. The conditions noted are these: peptide library: Human pTyr.
Regarding KPPGTSSYEIVIGGG [SLAF5_HUMAN_341], the enrichment score was inactive: 0.727.

With WMTGYEDYRHAPVRG [SPRE2_HUMAN_231], the enrichment score is inactive: 1.06.

As to SACTMGAYHPLLYEK [SIAT1_HUMAN_369], the enrichment score was inactive: 0.97.

For SETPGAIYSSNFHAV [SRBS1_HUMAN_654_YA], the enrichment score was inactive: 0.679.

Turning to ASEDTLTYADLDMVH [SHPS1_HUMAN_470], the enrichment score was inactive: 2.67.

Consider AAEEVMCYTSLQLRP [SIT1_HUMAN_127], for which the enrichment score is inactive: 2.86.

Consider ETNSITVYASVTLPE [SLAF1_HUMAN_327], for which the enrichment score was inactive: 1.6.

As to EIESSPQYRLRIAME [ATX2L_HUMAN_309], the enrichment score was inactive: 1.04.

As for KDESRNVYYELNDVR [SKT_HUMAN_244], the enrichment score was inactive: 0.732.

For the molecule SNDSEPKYAPIAVLL [AVIL_HUMAN_758_YA], the enrichment score was inactive: 1.11.

MARNEGFYADPALAH [SKT_HUMAN_393_YA]: the enrichment score was inactive: 0.604.

Turning to EDPPQEEYQEAEPEA [SNCB_HUMAN_127_YA], the enrichment score was inactive: 1.02.

Regarding KGVDAASYAQGLWDC [SKAP1_HUMAN_298_YA], the enrichment score is inactive: 1.04.

On to DAEDGEEYDDPFAGP [SKAP2_HUMAN_75], for which the enrichment score is inactive: 1.14.

As for TRRKGVDYASAAQGL [SKAP1_HUMAN_295_YA], the enrichment score is inactive: 0.776.

As to NSFNNPAYAVLEGVP [SHIP2_HUMAN_986_YA], the enrichment score was inactive: 1.23.

For the molecule EKKSLTIYAQVQKPG [SLAF1_HUMAN_281], the enrichment score was inactive: 1.49.

On to EMPSEEGYQDYEPEA [SNCA_HUMAN_133], for which the enrichment score is inactive: 1.12.

Another assay has as its target SHP2 N-SH2 domain T52S. Described as above. The settings on record: peptide library: Human pTyr.
For the molecule KPPGTSSYEIVIGGG [SLAF5_HUMAN_341], the enrichment score was inactive: 0.882.

For WMTGYEDYRHAPVRG [SPRE2_HUMAN_231], the enrichment score is inactive: 1.4.

Take SACTMGAYHPLLYEK [SIAT1_HUMAN_369]: the enrichment score is inactive: 1.25.

As for SETPGAIYSSNFHAV [SRBS1_HUMAN_654_YA], the enrichment score was inactive: 0.551.

Take ASEDTLTYADLDMVH [SHPS1_HUMAN_470]: the enrichment score was inactive: 2.69.

On to AAEEVMCYTSLQLRP [SIT1_HUMAN_127], for which the enrichment score was inactive: 1.71.

With ETNSITVYASVTLPE [SLAF1_HUMAN_327], the enrichment score was inactive: 1.43.

Consider EIESSPQYRLRIAME [ATX2L_HUMAN_309], for which the enrichment score is inactive: 1.13.

With KDESRNVYYELNDVR [SKT_HUMAN_244], the enrichment score was inactive: 0.936.

Regarding SNDSEPKYAPIAVLL [AVIL_HUMAN_758_YA], the enrichment score was inactive: 1.3.

As to MARNEGFYADPALAH [SKT_HUMAN_393_YA], the enrichment score is inactive: 0.556.

For EDPPQEEYQEAEPEA [SNCB_HUMAN_127_YA], the enrichment score is inactive: 1.26.

Take KGVDAASYAQGLWDC [SKAP1_HUMAN_298_YA]: the enrichment score was inactive: 1.08.

Regarding DAEDGEEYDDPFAGP [SKAP2_HUMAN_75], the enrichment score is inactive: 1.14.

Take TRRKGVDYASAAQGL [SKAP1_HUMAN_295_YA]: the enrichment score was inactive: 0.799.

Consider NSFNNPAYAVLEGVP [SHIP2_HUMAN_986_YA], for which the enrichment score is inactive: 0.599.

For EKKSLTIYAQVQKPG [SLAF1_HUMAN_281], the enrichment score was inactive: 1.79.

Consider EMPSEEGYQDYEPEA [SNCA_HUMAN_133], for which the enrichment score is inactive: 0.918.

A further assay addresses SHP2 N-SH2 domain wild-type. The assay is described as above. The settings on record: peptide library: Human pTyr.
For KPPGTSSYEIVIGGG [SLAF5_HUMAN_341], the enrichment score was inactive: 0.851.

As to WMTGYEDYRHAPVRG [SPRE2_HUMAN_231], the enrichment score was inactive: 1.62.

With SACTMGAYHPLLYEK [SIAT1_HUMAN_369], the enrichment score is inactive: 1.19.

As for SETPGAIYSSNFHAV [SRBS1_HUMAN_654_YA], the enrichment score is inactive: 0.579.

Regarding ASEDTLTYADLDMVH [SHPS1_HUMAN_470], the enrichment score was inactive: 1.58.

Take AAEEVMCYTSLQLRP [SIT1_HUMAN_127]: the enrichment score was inactive: 2.19.

As for ETNSITVYASVTLPE [SLAF1_HUMAN_327], the enrichment score is inactive: 1.68.

Regarding EIESSPQYRLRIAME [ATX2L_HUMAN_309], the enrichment score is inactive: 1.43.

As to KDESRNVYYELNDVR [SKT_HUMAN_244], the enrichment score was inactive: 1.38.

For the molecule SNDSEPKYAPIAVLL [AVIL_HUMAN_758_YA], the enrichment score is inactive: 1.25.

As for MARNEGFYADPALAH [SKT_HUMAN_393_YA], the enrichment score is inactive: 0.69.

For EDPPQEEYQEAEPEA [SNCB_HUMAN_127_YA], the enrichment score was inactive: 1.16.

As for KGVDAASYAQGLWDC [SKAP1_HUMAN_298_YA], the enrichment score was inactive: 0.964.

On to DAEDGEEYDDPFAGP [SKAP2_HUMAN_75], for which the enrichment score was inactive: 1.26.

On to TRRKGVDYASAAQGL [SKAP1_HUMAN_295_YA], for which the enrichment score was inactive: 0.675.

Turning to NSFNNPAYAVLEGVP [SHIP2_HUMAN_986_YA], the enrichment score is inactive: 0.623.

For EKKSLTIYAQVQKPG [SLAF1_HUMAN_281], the enrichment score was inactive: 1.73.

Turning to EMPSEEGYQDYEPEA [SNCA_HUMAN_133], the enrichment score is inactive: 1.32.

These data come from the supplement of paper PMC10369915.
